# According to ChEMBL document CHEMBL4888484, “Replenishing the malaria drug discovery pipeline: Screening and hit evaluation of the MMV Hit Generation Library 1 (HGL1) against asexual blood stage Plasmodium falciparum ,using a nano luciferase reporter read-out” (2022):
# About 540 (0.36%) of roughly 150,000 compounds showed an effect of 50% or more. Some of the results follow.
# System: Plasmodium falciparum
# Experiment: Primary screen in NF54 nanoGlo assay, in single point, at 2uM, 72h; a lower Z score goes with more inhibition
# Format: functional, Erythrocyte
# Details: timepoint 72 hour
Compound,% Inhibition [%],Z score
CC[C@H](Nc1cccc(CC(=O)OC)c1)C(N)=O,-4,0.7
CN(Cc1cc(C2CC2)on1)C(=O)Cc1c[nH]c(=O)n(C)c1=O,-1,0.13
CCn1cc(N[C@H]2CCN(c3ccc(F)c(Cl)c3)C2=O)cn1,1,-0.18
O=C(C[C@@H]1C=CCCC1)N1CCCC2(CC2)C1,3,-0.56
Cc1cnc(C(=O)NC2C[C@H]3CC[C@@H](C2)N3C(=O)Cc2ccc(F)cc2)cn1 (stereo partly drawn),-5,0.87
O=C(CC[C@@H]1CNC(=O)[C@@H]2C[C@H](NC(=O)Nc3ccsc3)CN12)NCc1cccs1,3,-0.42
COc1ccccc1CCN1C(=O)CC[C@@H]2CN(C(=O)Cc3ccsc3)CC[C@@H]21,-16,2.37
CC(C)C[C@H](NC(=O)CCc1ccc2c(c1)CCO2)c1nnc2ccccn12,4,-0.68
CCC(CC)(CNC(=O)N1C[C@@H](CNC(C)=O)[C@H](c2cncn2C)C1)OC,2,-0.28
C=C(C)C[C@H](C)C(=O)N1CCC(CC(=O)O)CC1,-16,1.99
CC1(C)COc2ccc(C(=O)N3CC[C@@H](O)C3)cc21,-3,0.56
O=C1C[C@@H]2CCN(Cc3ccccc3Cl)C[C@@H]2CCOc2ccccc2N1,4,-0.69
Cc1c[nH]c(CN(C)C(=O)C[C@@H](c2cccc(O)c2)c2cccc(Cl)c2)n1,-17,1.53
CC(C)(C)c1ccc(C(C)(C)CNC(=N)N)cc1,4,-0.7
CC1(C)C[C@@H](O)CCN(c2nc3ccccc3o2)C1,-30,2.66
O=C1CC[C@]2(c3ccccc3)NCCN12,-5,0.93
Cc1nn(C)c(C)c1S(=O)(=O)N[C@@H](C)C(=O)OC(c1ccccc1)c1ccccc1,6,-0.91
COc1ccc(CN2CCN(CCCn3cccn3)C[C@@H]2CCO)c(F)c1,0,0
COC[C@H]1CCN1C(=O)c1onc2c1CCCC2,-3,0.41
C[C@@H](CCNC(=O)c1nc[nH]c1C(F)(F)F)c1ccccc1,-5,0.92
C[C@@H](Cc1ccc(OC(F)(F)F)cc1)C(=O)NCc1cscn1,-1,0.12

Compound,% Inhibition [%],Z score
COCCOCc1nc(C2CCN(C(=O)Nc3ccccc3F)CC2)no1,4,-0.5
Cc1nc2cc(C(=O)N3CCC[C@H]3c3ccc4c(c3)OCCCO4)ccc2n1C,-5,0.5
O=C(Nc1nccs1)c1cc(NC(=O)c2cccs2)cc(NC(=O)c2cccs2)c1,28,-3.86
Cc1occc1C(=O)N[C@@H](CCO)C1CCOCC1,-16,3.13
CCCn1ncnc1[C@H](C)n1ccnc1-c1cnc(-c2ccco2)nc1,-16,2.81
Cc1cc(=O)cc(C(=O)NC[C@H]2CCCN(C(=O)C(C)C)C2)n1C,-4,0.54
O=C(c1ccsc1)N1CCC[C@H](CCc2noc(-c3ccccn3)n2)C1,-1,0.17
O=C(NC1CCCCCCC1)c1ccc(S(=O)(=O)NC2CC2)cc1,-14,2.64
COC(OC)C(=O)N1CCN(C(=O)C2CC(C)CC(C)(C)C2)CC1 (stereo not drawn),-7,0.93
O=S(=O)(Nc1nnc(CCc2ccccc2)o1)c1ccccc1F,-6,0.72
O=C(NCC1CCCC1O)Nc1cccs1 (stereo not drawn),0,0.03
Cc1nc(C(C)C)ncc1C(=O)NCCCN(C)c1ccccc1,-15,2.15
COc1ccccc1NC(=O)c1c(C)c(C)n[nH]c1=O,-6,0.76
O=C(NCc1ccc(N2CCOCC2)cc1)[C@H]1CCC(=O)N(C2CC2)C1,-17,2.43
COCc1csc(NS(=O)(=O)c2cc(C)c(C)s2)n1,-5,0.57
Cc1ccc(CN2CCc3c(cc(C(=O)N4CCC(N5CCCCC5)CC4)n3C)C2)cc1,-13,2.28
O=C(Nc1[nH]c(=O)ncc1F)c1cccc2ccccc12,85,-7.83
COc1cc(C)c(-c2nc3c(cnn3C)[nH]2)c(C)c1C,1,-0.19
CCN(C(=O)c1coc2ccccc12)[C@@H](C)CO,-16,1.91
CCNc1ncc(C(=O)N(CC)Cc2cc(Cl)ccc2OC)cn1,2,-0.29
Cc1c(CC(=O)NC[C@H]2COCCO2)c2c(n1Cc1ccccc1)CCCC2=O,1,-0.17

Compound,% Inhibition [%],Z score
Cc1nnc(N2CCN(C)[C@@H](CO)C2)nc1C,-6,0.6
CN(C(N)=NCc1cc(Br)c2c(c1)OCO2)C1CC1,-13,1.62
Cc1n[nH]c(C)c1-c1cc(-c2cccnc2)nc(N)c1C#N,-3,0.66
O=C(c1cccc(NS(=O)(=O)c2ccc(F)c(F)c2)c1)N1CCN(c2cccc(C(F)(F)F)c2)CC1,-6,1.19
Cc1cc(Cl)c2oc(C(=O)N3CCC[C@H]3c3nonc3C)c(C)c2c1,-14,1.26
COc1ccc(Cl)cc1[C@@H](O)CNC(=O)c1cc(C)nn1C1CCOCC1,1,-0.17
COCCNc1nc(=O)c2c([nH]1)NC(=O)[C@@H](CC(=O)Nc1ccc(Cl)c(Cl)c1)C2,31,-3.5
O=C(CCC1CCCCC1)N1CCN(C(=O)c2cnn3cccnc23)CC1,-6,0.7
Cc1nccc(O[C@H]2CCN(C(=O)NCc3cccs3)C2)n1,-12,1.87
COc1ccc(CCN2C(=O)C[C@H](c3ccccc3)C2=O)cc1OC,31,-3.47
CC1CN(Cc2ccc(-c3ccn[nH]3)o2)CC[S+]([O-])C1 (stereo not drawn),-16,1.61
CC1=C(CCN2C[C@@H]3CC[C@H]2CN(S(=O)(=O)N(C)C)C3)C(C)(C)CCC1,-6,0.96
CC(C)(C)c1cc(C(=O)N2CCCC[C@H]2C(=O)O)no1,0,-0.04
Cc1coc(C(=O)N(Cc2ccccc2)c2ccncc2)c1C,-15,1.48
CC(C)(C)OC(=O)N1CCCC[C@@H]1Cc1cc(C(=O)O)no1,-11,1.43
COCCN(Cc1c(C(C)C)nn(-c2ccccc2)c1Oc1ccccc1F)C(=O)c1ccc(F)cc1,-5,0.78
C=CCN1C[C@@H](C(=O)N2CCCCCCC2)CC1=O,7,-0.92
O=C(N[C@H]1CCOC1)C(c1ccccc1)c1ccccc1,-2,0.28
Cc1ccc(F)cc1-c1cnn(CC2CC2)c1,-5,0.91
Cc1nc(CNc2ncccc2CO)cs1,-5,0.9
C[C@H](N)c1cccc(Br)c1,-9,0.94

Compound,% Inhibition [%],Z score
Cc1nc2n(n1)C[C@@H](C(=O)N(C)CCOc1ccc(O)cc1)CC2,4,-0.73
Cc1c[nH]c(CN(C)C(=O)CCc2scnc2C)n1,-11,1.66
CCC(C)C(C)N(C(=O)NCC(F)(F)F)C1CC1 (stereo not drawn),-19,2.95
Cn1nccc1-c1ccccc1CN1CC[C@@](O)(C(F)F)C1,-15,1.95
Cc1cc(C)c(S(=O)(=O)N2CCC[C@H](C(=O)N3CCCC3)C2)c(C)c1,-14,1.98
O=C1C[C@@H](c2ccc(C(F)(F)F)cc2)c2c(O)nc(N3CCN(CCO)CC3)nc2N1,30,-4.39
CS(=O)(=O)CCC(=O)N(CCc1c[nH]c2ccccc12)C1CCCCC1,0,-0.01
CC1=NS(=O)(=O)N(CC(=O)NCc2ccc(C)cc2)C=C1c1nc(C)no1,3,-0.32
Clc1ccc(Cn2c(-c3cccs3)nc3ccccc32)c(Cl)c1,-7,0.91
Cc1ccc(C(=O)N[C@H]2CCC23CCOCC3)c(C)c1,10,-1.3
CCN(CC)c1ccc(C(=O)O)cc1N,-1,0.15
Cc1ccc(CC(=O)NC[C@@H](c2ccc(C)o2)N2CCCC2)cn1,7,-0.59
CC(=O)N1CCN(C(=O)Cc2csc(-c3ccc(C)o3)n2)CC1,-11,1.5
CCc1ncc(NS(=O)(=O)c2cnn3c2OCC(C)(C)C3)cn1,2,-0.45
Cc1ccc2c(C3CCN(C(=O)c4ccncc4F)CC3)c[nH]c2c1,0,0
O=C(COCc1cc[nH]c(=O)c1)N[C@@H]1c2ccccc2CC[C@@H]1O,-7,0.95
C[C@H]1CN(CCCc2ccccc2Br)CCS1(=O)=O,-11,0.97
COc1ccc(Cc2nc(-c3ccc4ncn(C(C)C)c4c3)no2)cc1,-9,1.49
CC1(c2ccc(F)cc2F)NC(=O)N(CCC2CCCO2)C1=O (stereo not drawn),-10,1.12
CCCC(=O)N1CCCC1C(=O)N1CCCC1Cc1ccc(C)cc1 (stereo not drawn),-7,1.06
COc1ccc(-c2c3c(=O)n(C)c(=O)n(C)c3c3n2C(C)(C)CO[C@H]3c2ccco2)cc1,3,-0.47
